From paper PMC4336329 (PLoS ONE, 2015)
Among all 310,000 compounds or so, about 2,200 (0.71%) showed an effect of 50% or more. The effect is printed as a negative number. Some of the results follow. Where a SMILES comes first, the peptide text is derived from it. The star is where a group is joined. PhAc = O=C(Cc1ccccc1)*; OBn = c1ccc(CO*)cc1

Each compound was assayed against human ether-à-go-go-related gene (hERG) potassium channel (human, UniProt Q12809) (assay: primary screen, population patch clamp on CHO cells stably expressing hERG).
Sequence of human ether-à-go-go-related gene (hERG) potassium channel (Q12809 whole entry, looked up): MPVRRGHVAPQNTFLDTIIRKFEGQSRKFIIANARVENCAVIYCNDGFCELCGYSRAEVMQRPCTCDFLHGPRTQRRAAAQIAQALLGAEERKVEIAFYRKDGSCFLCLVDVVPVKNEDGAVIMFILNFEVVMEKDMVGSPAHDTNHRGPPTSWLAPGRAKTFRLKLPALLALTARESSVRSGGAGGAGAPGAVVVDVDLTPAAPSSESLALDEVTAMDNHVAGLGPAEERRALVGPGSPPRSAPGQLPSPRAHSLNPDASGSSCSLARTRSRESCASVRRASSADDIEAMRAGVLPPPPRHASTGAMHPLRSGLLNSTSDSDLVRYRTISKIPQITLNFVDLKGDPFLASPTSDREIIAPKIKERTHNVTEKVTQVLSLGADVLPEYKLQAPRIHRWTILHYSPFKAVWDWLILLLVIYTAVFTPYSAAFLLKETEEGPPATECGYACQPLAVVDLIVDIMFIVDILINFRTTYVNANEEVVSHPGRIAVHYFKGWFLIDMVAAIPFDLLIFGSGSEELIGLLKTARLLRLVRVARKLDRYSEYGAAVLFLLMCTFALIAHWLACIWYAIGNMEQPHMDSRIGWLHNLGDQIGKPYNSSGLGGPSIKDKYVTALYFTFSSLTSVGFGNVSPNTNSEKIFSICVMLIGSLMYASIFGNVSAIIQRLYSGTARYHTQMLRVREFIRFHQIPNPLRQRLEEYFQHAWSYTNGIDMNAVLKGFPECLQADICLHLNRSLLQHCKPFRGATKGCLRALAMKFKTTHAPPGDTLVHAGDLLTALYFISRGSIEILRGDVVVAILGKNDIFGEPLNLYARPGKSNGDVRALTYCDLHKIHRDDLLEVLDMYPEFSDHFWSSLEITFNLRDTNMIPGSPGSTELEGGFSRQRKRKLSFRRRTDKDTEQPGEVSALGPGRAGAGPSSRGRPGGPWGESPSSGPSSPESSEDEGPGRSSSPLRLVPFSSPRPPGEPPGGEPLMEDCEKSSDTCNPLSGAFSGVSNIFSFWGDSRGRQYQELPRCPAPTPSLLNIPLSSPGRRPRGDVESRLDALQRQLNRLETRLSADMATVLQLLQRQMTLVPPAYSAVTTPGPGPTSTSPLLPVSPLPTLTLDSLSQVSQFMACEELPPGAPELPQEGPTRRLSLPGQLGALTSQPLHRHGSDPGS

SMILES | hERG current change (%, negative = inhibition) at 1uM [%]
COc1ccc(N2CCN(C(=O)C3Cc4ccccc4CN3C(=O)c3ccccc3)CC2)cc1 (centres unmarked) | 9.95
CCOC(=O)N1CCN(C(=O)c2ccc(OC)c(OC)c2)CC1 | 6.63
CN(C)CCCN(Cc1ccccc1)C(=S)Nc1ccc(SC(F)F)cc1 | -30.6
O=C(NNc1ccccc1F)C1CCC1 | 12.6
Cc1nc(=O)c(-c2ccccc2)c(C)n1-c1ccc(S(N)(=O)=O)cc1 | -5.85
CCn1ncc(C(=O)Nc2ccc([N+](=O)[O-])cc2OC)c1C | 11.2
CCOCCCNC(=O)CNC(=S)N(Cc1ccc(C)cc1)Cc1ccco1 | 4.01
O=C1CC(Sc2ncccn2)C(=O)N1c1ccccc1C(F)(F)F (centres unmarked) | 13
CCCCCCC(=O)N1CCCC(c2nc(-c3cccc(OC)c3)no2)C1 (centres unmarked) | -10.4
CC(Cn1cncn1)C(=O)N1CCN(S(=O)(=O)c2ccc(Cl)cc2)CC1 (centres unmarked) | 14
O=C(c1cnccn1)N(c1ccccc1)C1(C(=O)NC2CCCCC2)CCCCC1 | 10.4
COc1ccc(N2CCN(C(=O)CSc3nnc(NC(=O)C4CC4)s3)CC2)cc1 | 8.83
COc1ccc(NS(=O)(=O)c2cn(C)cn2)cc1 | 11.7
CSCC[C@H](NC(=O)N1CCn2c1nc1ccccc12)C(=O)NCc1ccco1 | 9.68
O=C(NC1CCCCC1)C(c1ccncc1)N(C(=O)c1csnn1)c1ccccc1F (centres unmarked) | 6.21
CCN1CCN(c2ccc(N)cc2)CC1 | 24
COc1ccc2c(c1)c(C(=O)N/N=C/c1cccc(Br)c1)c(C)n2C | -4.28
CCC(CC)NC(=O)COc1ccc(OC)cc1C=O | 13.4
COC(=O)C1=NNC(C(=O)c2ccco2)C1c1ccccc1 (centres unmarked) | 4.58
O=C(/C=C/c1ccc(F)cc1)N1CCN(c2ncccn2)CC1 | 18.1
CN1CCN(C(=S)c2cn(CCOc3ccccc3)c3ccccc23)CC1 | 7.29
CCN(CC)S(=O)(=O)c1cccc(NC(=O)COC(=O)c2n[nH]c(=O)c3ccccc23)c1 | 14.5
Cn1c(=O)[nH]c(=O)c2c1nc(Br)n2CCCO | 11.8

SMILES | hERG current change (%, negative = inhibition) at 1uM [%]
CCc1ccc(NC(=O)Nn2cnnc2)cc1 | 10.4
CC(=O)c1ccc(NC(=O)CCCN2C(=O)C(c3ccccc3)Oc3cccnc32)cc1 (centres unmarked) | 6.1
Cc1cc(NC(=O)/C(C#N)=C/c2ccco2)n(-c2ccccc2)n1 | 8.19
O=C1CN=C(c2cccc(Br)c2)c2cc(Br)ccc2N1 | 0.318
Cc1ccccc1NC(=O)C1c2ccccc2Oc2ccccc21 | 20.8
COc1ccc(CC(=O)N(C)CC(=O)Nc2ccccc2SC)cc1 | 13
CN(c1ncnc(N)c1[N+](=O)[O-])C1CCCCC1 | 12.5
O=C(NC(Cc1ccccc1)C(=O)O)c1ccccc1 (centres unmarked) | 8.52
C=CCN(CC=C)C(=O)Cn1cnc([N+](=O)[O-])n1 | 2.68
CCN(c1ccc(NC(=O)CN2C(=O)NC3(CCOc4ccccc43)C2=O)cc1)C(C)C (centres unmarked) | 7.32
Cn1c(SCC(=O)Nc2ccc3c(c2)OCCO3)nnc1C(F)(F)F | 2.89
CCCC(=Nc1ccccc1)C1=C(O)C(C(=O)OC)C(C)(C)CC1=O (centres unmarked) | 6.52
CC1(C)C2CCC1(CS(=O)(=O)N1CCN(c3ccc(F)cc3)CC1)C(=O)C2 (centres unmarked) | 14.5
Cc1ccnc(SC2CC(=O)N(c3ccc([N+](=O)[O-])cc3)C2=O)n1 (centres unmarked) | 8.69
Cc1ccn2c(=O)nc(SCC(=O)Nc3ccc4c(c3)OCO4)nc2c1 | 10.1
COCc1cc(N2CCOCC2)nc(SCc2ccc(Cl)cc2)n1 | 5.58
CCOc1ccc(CN(C)C(=O)c2ccc3ccccc3n2)cc1 | 9.79
O=C(NCc1ccccc1)Nc1cccn(Cc2c(F)cccc2Cl)c1=O | 18.7
COc1cccc(OCc2nn3c(=O)c(-c4ccccc4)nnc3s2)c1 | 12.5
O=C(Nc1cccnc1)c1cccc(S(=O)(=O)N2CCCC2)c1 | 12.8
Cc1cc2cc(C)c3nnc(SCc4ccccn4)n3c2cc1C | -2.68
Cn1c(-c2csc(-c3cccc(C(F)(F)F)c3)n2)n[nH]c1=S | -1.25
CNc1ccccc1C(C)(C)c1ccn[nH]1 | 7.26

SMILES | hERG current change (%, negative = inhibition) at 1uM [%]
CCn1c(SCc2nc3ccccc3[nH]2)nnc1-c1ccc(OC)cc1 | 7.57
Cc1cc(C)n(-c2nc(Nc3ccccc3C(F)(F)F)nc(-n3nc(C)cc3C)n2)n1 | -0.563
O=C(COc1ccc(Cl)cc1Br)Nc1nnc(C2CC2)s1 | 13.2
O=C(Nc1ccc(F)cc1Cl)c1ccc2c(=O)n3c(nc2c1)CCC3 | 6.83
COC(=O)[C@@H]1[C@H]2C[C@H]3c4[nH]c5ccccc5c4CCN3C[C@@H]2CC[C@@H]1O | -21.3
Cc1ccc(C(=O)N(Cc2cccnc2)Cc2cc3cc(C)ccc3n3nnnc23)cc1 | 9.03
COc1cc(C(=O)OCC(=O)N2CCCCC2C)ccc1OCc1c(C)noc1C (centres unmarked) | -2.18
CC1Cc2ccccc2N1C(=O)CN1CCc2ccccc2C1 (centres unmarked) | 6.34
CCN(CC)CCN1C(=O)C(=O)/C(=C(/O)c2c(C)[nH]c(C(=O)OC)c2C)C1c1ccccc1 (centres unmarked) | -4.32
Cc1cccc(C)c1NC(=O)C(c1ccc([N+](=O)[O-])cc1)N(C)C(=O)c1ccccn1 (centres unmarked) | -7.66
O=C(NCCc1cnccn1)C1CCC(=O)N(Cc2ccc(Cl)cc2)C1 (centres unmarked) | 13.6
CCn1cc(C(=O)Nc2ccccc2C(=O)OC)cn1 | 4.19
O=[N+]([O-])c1ccc(N/N=C/c2cccc(O)c2O)c(S(=O)(=O)N2CCOCC2)c1 | 9.48
Cc1nc(N)sc1Cc1ccc2c(c1)OCO2 | 6.67
COc1cccc(NC(=O)C(Sc2nnc3ccccn23)c2ccccc2)c1 (centres unmarked) | -1.84
CC1(C)CC(=O)C(C=Nc2ccc3cn[nH]c3c2)=C(O)C1 | 2.38
CCCc1[nH]nc2c1C(c1ccc(OC)cc1OC)C(C#N)=C(N)O2 (centres unmarked) | 10.3
CCOc1ccc(NS(=O)(=O)c2ccc(C(=O)NCCCN3CCOCC3)cc2)cc1 | 10.1
O=C(CC(=O)Nc1ccccc1)Nc1ccccc1 | 12.9
CCOc1cc(/C=N/O)ccc1OS(=O)(=O)c1ccc(C)cc1 | 5.49
CCCCCCCNC(=O)CN1C(=O)CSc2ccc(S(=O)(=O)N3CCOCC3)cc21 | 3.65
Cc1cccc(-c2oc3ccc(-c4ccc5c(c4)OCO5)cc3c2C#Cc2cncn2C)c1 | 17.4
CCOC(=O)N1CCN(C(=S)NC(=O)c2ccc(Br)cc2)CC1 | 6.5

SMILES | hERG current change (%, negative = inhibition) at 1uM [%]
CCC1(C(=O)c2ccc(C)cc2)C2c3ccccc3OC(=O)C21C(=O)O (centres unmarked) | 7.96
C/C(N)=C(/C#N)C(=O)COC(=O)c1cc(-c2cccc3ccccc23)nc2ccccc12 | 13.7
Cc1ccc(C=Nc2ccccc2C(N)=O)cc1 | 13.1
Cc1ccc(Cl)cc1N1CCN(C(=O)Cc2ccc(-n3c(=O)[nH]c4ccsc4c3=O)cc2)CC1 | 3.38
O=C(N/N=C/c1ccccc1[N+](=O)[O-])C(=O)N1CCCC1 | 6.98
Nc1ccc(S(=O)(=O)NC2(C(F)(F)F)NC(=O)N(c3ccc(F)cc3)C2=O)cc1 (centres unmarked) | 9.95
N#CCCN1C(=O)C2(OCCO2)c2ccccc21 | 13.8
Cc1ccc(-n2cc(CN3CCCN(C=O)CC3)c(-c3ccc(F)cc3)n2)cc1 | 8.09
Cc1cccc(N2CCN(c3nc4nonc4nc3N3CCSCC3)CC2)n1 | 13.3
CN(C)CCCOc1ccc(Cl)cc1Br.O=C(O)C(=O)O | -29.9
Cc1c(C)c2cc(Cl)c(OCC(=O)NCCCn3ccnc3)cc2oc1=O | 8.76
O=C(CNS(=O)(=O)c1ccc(Br)cc1)N1CCOCC1 | 8.4
Cc1cc(C)nc(NCCCc2ccccc2)n1 | 12.1
O=C1CC(c2ccc(Cl)c([N+](=O)[O-])c2)c2ccc3ccccc3c2N1 (centres unmarked) | -2.86
Cc1ccc2nc(NC(=O)COC(=O)CSc3nc(C)cc(C)n3)sc2c1 | 5.55
CCCOC(=O)c1c(N)sc(C(=O)OCC)c1C | 14.6
CCN(Cc1ccccc1)S(=O)(=O)c1ccc2oc(C(=O)O)c(C)c2c1 | 0.741
O=C(CNC(=O)Cc1ccccc1)NCC(=O)OCc1ccccc1 (PhAc-Gly-Gly-OBn) | 9.63
O=C(COC(=O)c1ccc(CO)cc1)Nc1ccc2ccccc2c1 | 7.56
Cc1ccc(N2CC(=O)Nc3c(oc4nc(-c5ccccc5)cc(C)c34)C2=O)cc1 | 10.1
